{
  "source": "the supplement of paper PMC8728848",
  "binders": {"B1": {"name": "GH98CBM (Clostridium perfringens) (protein)", "chain": "EVYALEESRDVYLSDLDWLNATHGDDTKSKIVQKNHPFTPGNNNQSTKISLKMEDGSISEFEKGLGTIAGSPSTITYDISGAGVTKFFSYLGIDRSANPINEQYAKVDKIEVVVDGKVIYSTINQFPNGLTYETPAIKVDLNIPENAKRLQLKSYAGEKTWGDEVVYADAKFTAKGDFVN"}},
  "assay_in_all_cases": "glycan array binding signal (z-score within array); higher = stronger binding",
  "conditions_in_all_cases": "glycan notation: IUPAC condensed, linker removed",
  "key": {"GlcNAc(b1-6)GalNAc": {"molecular_target": "GlcNAc(b1-6)GalNAc", "method_in_brief": "(§1)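 The Consortium for Functional Glycomics database supplied 3228 glycan arrays, of which those lacking an available protein sequence were dropped. The binding signal, a within-array Z-score, was averaged across arrays of the same protein sequence and across linkers. Negative scores can be read as non-binding.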"}, "GlcNAc3Prop(b1-4)GlcNAc": {"molecular_target": "GlcNAc3Prop(b1-4)GlcNAc", "method_in_brief": "as §1"}, "Kdn(a2-3)Gal(b1-3)GlcNAc": {"molecular_target": "Kdn(a2-3)Gal(b1-3)GlcNAc", "method_in_brief": "as §1"}, "Kdn(a2-3)Gal(b1-4)GlcNAc": {"molecular_target": "Kdn(a2-3)Gal(b1-4)GlcNAc", "method_in_brief": "as §1"}, "[1]": {"molecular_target": "Man(a1-2)Man(a1-2)Man(a1-3)Man", "method_in_brief": "as §1"}, "[2]": {"molecular_target": "Man(a1-2)Man(a1-2)Man(a1-6)[Man(a1-3)]Man", "method_in_brief": "as §1"}, "Man(a1-2)Man(a1-3)Man": {"molecular_target": "Man(a1-2)Man(a1-3)Man", "method_in_brief": "as §1"}, "[3]": {"molecular_target": "Man(a1-2)Man(a1-3)[Man(a1-2)Man(a1-6)]Man", "method_in_brief": "as §1"}, "[4]": {"molecular_target": "Man(a1-2)Man(a1-3)[Man(a1-2)Man(a1-6)]Man(a1-6)[Man(a1-2)Man(a1-2)Man(a1-3)]Man", "method_in_brief": "as §1"}, "[5]": {"molecular_target": "Man(a1-2)Man(a1-3)[Man(a1-2)Man(a1-6)]Man(a1-6)[Man(a1-2)Man(a1-2)Man(a1-3)]Man(b1-4)GlcNAc(b1-4)GlcNAc", "method_in_brief": "as §1"}, "[6]": {"molecular_target": "Man(a1-2)Man(a1-3)[Man(a1-6)]Man(a1-6)[Man(a1-2)Man(a1-3)]Man(b1-4)GlcNAc(b1-4)GlcNAc", "method_in_brief": "as §1"}, "[7]": {"molecular_target": "Man(a1-2)Man(a1-6)[Man(a1-3)]Man(a1-6)[Man(a1-2)Man(a1-2)Man(a1-3)]Man", "method_in_brief": "as §1"}, "[8]": {"molecular_target": "Man(a1-2)Man(a1-6)[Man(a1-3)]Man(a1-6)[Man(a1-2)Man(a1-2)Man(a1-3)]Man(b1-4)GlcNAc(b1-4)GlcNAc", "method_in_brief": "as §1"}, "Man(a1-3)[Man(a1-6)]Man": {"molecular_target": "Man(a1-3)[Man(a1-6)]Man", "method_in_brief": "as §1"}, "[9]": {"molecular_target": "Man(a1-3)[Man(a1-6)]Man(a1-6)[Man(a1-2)Man(a1-3)]Man(b1-4)GlcNAc(b1-4)GlcNAc", "method_in_brief": "as §1"}, "[10]": {"molecular_target": "Man(a1-3)[Man(a1-6)]Man(a1-6)[Man(a1-3)]Man", "method_in_brief": "as §1"}, "[11]": {"molecular_target": "Man(a1-3)[Man(a1-6)]Man(a1-6)[Man(a1-3)]Man(b1-4)GlcNAc(b1-4)GlcNAc", "method_in_brief": "as §1"}, "[12]": {"molecular_target": "Man(a1-3)[Man(a1-6)]Man(b1-4)GlcNAc(b1-4)GlcNAc", "method_in_brief": "as §1"}, "Man(a1-6)Man": {"molecular_target": "Man(a1-6)Man", "method_in_brief": "as §1"}, "Man(b1-4)GlcNAc": {"molecular_target": "Man(b1-4)GlcNAc", "method_in_brief": "as §1"}, "Neu5Ac(a2-3)Gal": {"molecular_target": "Neu5Ac(a2-3)Gal", "method_in_brief": "as §1"}, "[13]": {"molecular_target": "Neu5Ac(a2-3)Gal(b1-3)GalNAc", "method_in_brief": "as §1"}, "[14]": {"molecular_target": "Neu5Ac(a2-3)Gal(b1-3)GalNAc(b1-3)Gal(a1-4)Gal(b1-4)Glc", "method_in_brief": "as §1"}, "[15]": {"molecular_target": "Neu5Ac(a2-3)Gal(b1-3)GalNAc(b1-3)Gal(b1-4)GlcNAc", "method_in_brief": "as §1"}, "[16]": {"molecular_target": "Neu5Ac(a2-3)Gal(b1-3)GalNAc(b1-4)[Neu5Ac(a2-3)]Gal(b1-4)Glc", "method_in_brief": "as §1"}, "[17]": {"molecular_target": "Neu5Ac(a2-3)Gal(b1-3)GalNAc6S", "method_in_brief": "as §1"}, "[18]": {"molecular_target": "Neu5Ac(a2-3)Gal(b1-3)GlcNAc", "method_in_brief": "as §1"}, "[19]": {"molecular_target": "Neu5Ac(a2-3)Gal(b1-3)GlcNAc(b1-3)Gal(b1-3)GlcNAc", "method_in_brief": "as §1"}, "[20]": {"molecular_target": "Neu5Ac(a2-3)Gal(b1-3)GlcNAc6S", "method_in_brief": "as §1"}, "[21]": {"molecular_target": "Neu5Ac(a2-3)Gal(b1-3)[Fuc(a1-4)]GlcNAc", "method_in_brief": "as §1"}, "[22]": {"molecular_target": "Neu5Ac(a2-3)Gal(b1-3)[Fuc(a1-4)]GlcNAc(b1-3)Gal(b1-4)[Fuc(a1-3)]GlcNAc", "method_in_brief": "as §1"}, "[23]": {"molecular_target": "Neu5Ac(a2-3)Gal(b1-3)[Neu5Ac(a2-3)Gal(b1-4)]GlcNAc", "method_in_brief": "as §1"}, "[24]": {"molecular_target": "Neu5Ac(a2-3)Gal(b1-3)[Neu5Ac(a2-6)]GalNAc", "method_in_brief": "as §1"}, "Neu5Ac(a2-3)Gal(b1-4)Glc": {"molecular_target": "Neu5Ac(a2-3)Gal(b1-4)Glc", "method_in_brief": "as §1"}, "[25]": {"molecular_target": "Neu5Ac(a2-3)Gal(b1-4)GlcNAc", "method_in_brief": "as §1"}, "[26]": {"molecular_target": "Neu5Ac(a2-3)Gal(b1-4)GlcNAc(b1-2)Man(a1-3)[GlcNAc(b1-2)Man(b1-4)GlcNAc(b1-2)Man(a1-6)]Man(b1-4)GlcNAc(b1-4)GlcNAc", "method_in_brief": "as §1"}, "[27]": {"molecular_target": "Neu5Ac(a2-3)Gal(b1-4)GlcNAc(b1-2)Man(a1-3)[Neu5Ac(a2-6)Gal(b1-4)GlcNAc(b1-2)Man(a1-6)]Man(b1-4)GlcNAc(b1-4)GlcNAc", "method_in_brief": "as §1"}, "[28]": {"molecular_target": "Neu5Ac(a2-3)Gal(b1-4)GlcNAc(b1-3)Gal(b1-3)GlcNAc", "method_in_brief": "as §1"}, "[29]": {"molecular_target": "Neu5Ac(a2-3)Gal(b1-4)GlcNAc(b1-3)Gal(b1-4)GlcNAc", "method_in_brief": "as §1"}, "[30]": {"molecular_target": "Neu5Ac(a2-3)Gal(b1-4)GlcNAc(b1-3)Gal(b1-4)GlcNAc(b1-3)Gal(b1-4)GlcNAc", "method_in_brief": "as §1"}, "[31]": {"molecular_target": "Neu5Ac(a2-3)Gal(b1-4)GlcNAc(b1-3)Gal(b1-4)[Fuc(a1-3)]GlcNAc", "method_in_brief": "as §1"}, "[32]": {"molecular_target": "Neu5Ac(a2-3)Gal(b1-4)GlcNAc(b1-6)[Gal(b1-3)]GalNAc", "method_in_brief": "as §1"}, "[33]": {"molecular_target": "Neu5Ac(a2-3)Gal(b1-4)GlcNAc(b1-6)[Neu5Ac(a2-3)Gal(b1-3)]GalNAc", "method_in_brief": "as §1"}, "[34]": {"molecular_target": "Neu5Ac(a2-3)Gal(b1-4)GlcNAc6S", "method_in_brief": "as §1"}},
  "note": "This is one part of the list.",
  "data": [
    {"binder": "B1", "values": [
      {"measurement": "glycan array binding signal (z-score)", "setting": "GlcNAc(b1-6)GalNAc", "value": -0.22},
      {"measurement": "glycan array binding signal (z-score)", "setting": "GlcNAc3Prop(b1-4)GlcNAc", "value": -0.189},
      {"measurement": "glycan array binding signal (z-score)", "setting": "Kdn(a2-3)Gal(b1-3)GlcNAc", "value": -0.208},
      {"measurement": "glycan array binding signal (z-score)", "setting": "Kdn(a2-3)Gal(b1-4)GlcNAc", "value": -0.306},
      {"measurement": "glycan array binding signal (z-score)", "setting": "[1]", "value": -0.083},
      {"measurement": "glycan array binding signal (z-score)", "setting": "[2]", "value": -0.06},
      {"measurement": "glycan array binding signal (z-score)", "setting": "Man(a1-2)Man(a1-3)Man", "value": -0.149},
      {"measurement": "glycan array binding signal (z-score)", "setting": "[3]", "value": -0.215},
      {"measurement": "glycan array binding signal (z-score)", "setting": "[4]", "value": -0.242},
      {"measurement": "glycan array binding signal (z-score)", "setting": "[5]", "value": -0.089},
      {"measurement": "glycan array binding signal (z-score)", "setting": "[6]", "value": -0.241},
      {"measurement": "glycan array binding signal (z-score)", "setting": "[7]", "value": -0.245},
      {"measurement": "glycan array binding signal (z-score)", "setting": "[8]", "value": -0.256},
      {"measurement": "glycan array binding signal (z-score)", "setting": "Man(a1-3)[Man(a1-6)]Man", "value": 0.317},
      {"measurement": "glycan array binding signal (z-score)", "setting": "[9]", "value": -0.255},
      {"measurement": "glycan array binding signal (z-score)", "setting": "[10]", "value": -0.313},
      {"measurement": "glycan array binding signal (z-score)", "setting": "[11]", "value": -0.155},
      {"measurement": "glycan array binding signal (z-score)", "setting": "[12]", "value": -0.263},
      {"measurement": "glycan array binding signal (z-score)", "setting": "Man(a1-6)Man", "value": -0.126},
      {"measurement": "glycan array binding signal (z-score)", "setting": "Man(b1-4)GlcNAc", "value": -0.183},
      {"measurement": "glycan array binding signal (z-score)", "setting": "Neu5Ac(a2-3)Gal", "value": -0.141},
      {"measurement": "glycan array binding signal (z-score)", "setting": "[13]", "value": -0.174},
      {"measurement": "glycan array binding signal (z-score)", "setting": "[14]", "value": -0.252},
      {"measurement": "glycan array binding signal (z-score)", "setting": "[15]", "value": -0.238},
      {"measurement": "glycan array binding signal (z-score)", "setting": "[16]", "value": -0.223},
      {"measurement": "glycan array binding signal (z-score)", "setting": "[17]", "value": -0.119},
      {"measurement": "glycan array binding signal (z-score)", "setting": "[18]", "value": -0.244},
      {"measurement": "glycan array binding signal (z-score)", "setting": "[19]", "value": -0.317},
      {"measurement": "glycan array binding signal (z-score)", "setting": "[20]", "value": -0.128},
      {"measurement": "glycan array binding signal (z-score)", "setting": "[21]", "value": -0.267},
      {"measurement": "glycan array binding signal (z-score)", "setting": "[22]", "value": 0.107},
      {"measurement": "glycan array binding signal (z-score)", "setting": "[23]", "value": -0.275},
      {"measurement": "glycan array binding signal (z-score)", "setting": "[24]", "value": -0.233},
      {"measurement": "glycan array binding signal (z-score)", "setting": "Neu5Ac(a2-3)Gal(b1-4)Glc", "value": -0.197},
      {"measurement": "glycan array binding signal (z-score)", "setting": "[25]", "value": -0.237},
      {"measurement": "glycan array binding signal (z-score)", "setting": "[26]", "value": 0.017},
      {"measurement": "glycan array binding signal (z-score)", "setting": "[27]", "value": -0.286},
      {"measurement": "glycan array binding signal (z-score)", "setting": "[28]", "value": -0.244},
      {"measurement": "glycan array binding signal (z-score)", "setting": "[29]", "value": -0.247},
      {"measurement": "glycan array binding signal (z-score)", "setting": "[30]", "value": -0.186},
      {"measurement": "glycan array binding signal (z-score)", "setting": "[31]", "value": -0.316},
      {"measurement": "glycan array binding signal (z-score)", "setting": "[32]", "value": -0.113},
      {"measurement": "glycan array binding signal (z-score)", "setting": "[33]", "value": -0.166},
      {"measurement": "glycan array binding signal (z-score)", "setting": "[34]", "value": -0.228}
    ]}
  ]
}
